The results in this text go back to the supplement of paper PMC6089552.

The structures appear in SMILES notation. The whole screen tested about 3,200 compounds, of which about 300 (9.4%) showed activity. Only a part is listed here, and it is no random draw.

The subject of this experiment is A673/TR/shEF. Description: cell viability (LOESS-normalised, relative to median of negative controls) (log2 ratio); higher = more viable cells (less compound effect), active = hit call of the paper (over 3 MAD below the median). The conditions noted are these: treatment time: 72 h. The method, boiled down: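 Doxycycline, present or absent from 24 h before compounds, was used to induce EWS-FLI1 shRNA knockdown in A673/TR/shEF Ewing sarcoma cells at 1,500 per well in 384-well plates. Cells then received library compounds at two or more concentrations, or DMSO controls, for three days. Viability was measured by CellTiter-Glo luminescence on an Envision reader, and per-plate LOESS correction, division by the negative-control median and log2 transformation followed.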

[1] abbreviates: 0.25 µM, library screen: screen1, EWS-FLI1 expression: high (no doxycycline).
The mark [2] stands for this setting: 0.25 µM, library screen: screen1, EWS-FLI1 expression: low (doxycycline-induced shRNA knockdown).
Setting [3] is: 2.5 µM, library screen: screen1, EWS-FLI1 expression: high (no doxycycline).
[4] abbreviates: 2.5 µM, library screen: screen1, EWS-FLI1 expression: low (doxycycline-induced shRNA knockdown).
Where [5] appears, read: 0.25 µM, library screen: screen2, EWS-FLI1 expression: high (no doxycycline).
Setting [6] is: 0.25 µM, library screen: screen2, EWS-FLI1 expression: low (doxycycline-induced shRNA knockdown).
The mark [7] stands for this setting: 2.5 µM, library screen: screen2, EWS-FLI1 expression: high (no doxycycline).
[8] abbreviates: 2.5 µM, library screen: screen2, EWS-FLI1 expression: low (doxycycline-induced shRNA knockdown).
Setting [9] is: 0.103 µM, library screen: screen3, EWS-FLI1 expression: high (no doxycycline).
The mark [10] stands for this setting: 0.103 µM, library screen: screen3, EWS-FLI1 expression: low (doxycycline-induced shRNA knockdown).
Setting [11] is: 0.308 µM, library screen: screen3, EWS-FLI1 expression: high (no doxycycline).
Setting [12] is: 0.308 µM, library screen: screen3, EWS-FLI1 expression: low (doxycycline-induced shRNA knockdown).
The mark [13] stands for this setting: 0.926 µM, library screen: screen3, EWS-FLI1 expression: high (no doxycycline).
Setting [14] is: 0.926 µM, library screen: screen3, EWS-FLI1 expression: low (doxycycline-induced shRNA knockdown).
Where [15] appears, read: 2.8 µM, library screen: screen3, EWS-FLI1 expression: high (no doxycycline).
The mark [16] stands for this setting: 2.8 µM, library screen: screen3, EWS-FLI1 expression: low (doxycycline-induced shRNA knockdown).
[17] abbreviates: 8.3 µM, library screen: screen3, EWS-FLI1 expression: high (no doxycycline).
Where [18] appears, read: 8.3 µM, library screen: screen3, EWS-FLI1 expression: low (doxycycline-induced shRNA knockdown).
Where [19] appears, read: 25 µM, library screen: screen3, EWS-FLI1 expression: high (no doxycycline).
Setting [20] is: 25 µM, library screen: screen3, EWS-FLI1 expression: low (doxycycline-induced shRNA knockdown).

Consider `CC1=C2[C@H]3OC(=O)[C@@H](C)[C@@H]3CC[C@@]2(C)C=CC1=O`, for which the “cell viability (log2)” value was inactive: 0.0669 under setting [1], inactive: -0.0349 under setting [2], inactive: 0.0906 under setting [3] and inactive: 0.0161 under setting [4].
`NNC(N)=O`: the “cell viability (log2)” value under setting [5] is inactive: 0.0269, the “cell viability (log2)” value under setting [6] was inactive: 0.0292, the “cell viability (log2)” value under setting [7] was inactive: 0.198 and the “cell viability (log2)” value under setting [8] was inactive: -0.0477.
On to `C=C(C)[C@H]1Cc2c(ccc3c2O[C@@H]2COc4cc(OC)c(OC)cc4[C@@H]2C3=O)O1`, for which the “cell viability (log2)” value by setting is: (0.025 µM, library screen: screen2, EWS-FLI1 expression: high (no doxycycline)) inactive: 0.0593; (0.025 µM, library screen: screen2, EWS-FLI1 expression: low (doxycycline-induced shRNA knockdown)) inactive: 0.0961; under setting [1], active: -1.71; under setting [2], active: -0.663; under setting [5], active: -0.962; under setting [6], active: -0.539. In addition, the “cell viability (log2)” value is, setting by setting: under setting [3], active: -2.87; under setting [4], active: -1.24; under setting [7], active: -2.41; under setting [8], active: -0.955; (25 µM, library screen: screen2, EWS-FLI1 expression: high (no doxycycline)) active: -3.79; (25 µM, library screen: screen2, EWS-FLI1 expression: low (doxycycline-induced shRNA knockdown)) active: -1.03.
Consider `COC(=O)C1=CCCN(C)C1`, for which the “cell viability (log2)” value under setting [1] is inactive: 0.131; the “cell viability (log2)” value under setting [2] was inactive: -0.0181; the “cell viability (log2)” value under setting [5] was inactive: 0.159; the “cell viability (log2)” value under setting [6] is inactive: 0.0966; the “cell viability (log2)” value under setting [3] was inactive: 0.24; the “cell viability (log2)” value under setting [4] was inactive: 0.114. The “cell viability (log2)” value was inactive: 0.0636 under setting [7] and inactive: 0.154 under setting [8].
Regarding `Fc1ccc(C(OCCN2CCN(CCCc3ccccc3)CC2)c2ccc(F)cc2)cc1`, the “cell viability (log2)” value under setting [5] is inactive: 0.187, the “cell viability (log2)” value under setting [6] is inactive: 0.0844, the “cell viability (log2)” value under setting [7] is inactive: 0.166 and the “cell viability (log2)” value under setting [8] is inactive: 0.0854.
Regarding `N[C@@H](CCl)C(=O)O`, the “cell viability (log2)” value under setting [5] was inactive: 0.216, the “cell viability (log2)” value under setting [6] was inactive: 0.144, the “cell viability (log2)” value under setting [7] was inactive: 0.0457 and the “cell viability (log2)” value under setting [8] was inactive: 0.0934.
On to `CC(C)(C)NCC(O)c1cc(Cl)c(N)c(Cl)c1` (centres undefined), for which the “cell viability (log2)” value is, setting by setting: under setting [1], inactive: 0.0911; under setting [2], inactive: 0.0692; under setting [3], inactive: 0.117; under setting [4], inactive: 0.116.
`COc1cc2c(cc1OC)[C@@]13CCN4CC5=CCO[C@H]6CC(=O)N2[C@H]1[C@H]6[C@H]5C[C@H]43`: the “cell viability (log2)” value was inactive: 0.0057 under setting [1], inactive: 0.0368 under setting [2], inactive: 0.098 under setting [3] and inactive: -0.0757 under setting [4].
As to `NNC(=O)c1ccc(O)cc1`, the “cell viability (log2)” value runs as follows: under setting [5], inactive: 0.16; under setting [6], inactive: 0.0709; under setting [7], inactive: 0.151; under setting [8], inactive: 0.0236.
The corresponding values for `COC(=O)[C@@H](N)CCCN=C(N)N[N+](=O)[O-]` are inactive: 0.0622, inactive: 0.111, inactive: 0.138 and inactive: 0.134.
On to `CC(C)=CCCC1(C)C=Cc2c(O)c3c(c(CC=C(C)C)c2O1)OC12C(=CC4CC1C(C)(C)OC2(CC=C(C)C(=O)O)C4O)C3=O` (centres undefined), for which the “cell viability (log2)” value was inactive: 0.1 under setting [1], inactive: 0.0956 under setting [2], active: -0.137 under setting [3] and 0.307 under setting [4].
For the compound `C[C@]12CC[C@H]3[C@@H](CC[C@@]45O[C@@H]4C(O)=C(C#N)C[C@]35C)[C@@H]1CC[C@@H]2O`, the “cell viability (log2)” value reads like this: under setting [9], inactive: 0.0389; under setting [10], inactive: 0.0413; under setting [11], inactive: 0.0492; under setting [12], inactive: 0.0305; under setting [13], inactive: 0.0104; under setting [14], inactive: 0.00289. Moreover, the “cell viability (log2)” value reads like this: under setting [15], inactive: 0.0626; under setting [16], inactive: 0.0626; under setting [17], inactive: 0.137; under setting [18], inactive: 0.0589; under setting [19], inactive: 0.00564; under setting [20], inactive: 0.0892.
Regarding `NCCCP(=O)(O)O`, the “cell viability (log2)” value is, setting by setting: under setting [5], inactive: 0.138; under setting [6], inactive: 0.0766; under setting [7], inactive: 0.114; under setting [8], inactive: 0.116.
`CNCCc1c[nH]c2ccc(O)cc12`: the “cell viability (log2)” value by setting is: under setting [5], inactive: 0.0733; under setting [6], inactive: 0.112; under setting [7], inactive: 0.113; under setting [8], inactive: 0.0908.
As to `CCC1(CC)C(=O)C=CNC1=O`, the “cell viability (log2)” value reads like this: under setting [1], inactive: 0.0965; under setting [2], inactive: 0.116; under setting [3], inactive: 0.143; under setting [4], inactive: 0.0487.
For `Cc1c(N)nc(C(CC(N)=O)NCC(N)C(N)=O)nc1C(=O)NC(C(=O)NC(C)C(O)C(C)C(=O)NC(C(=O)NCCc1nc(-c2nc(C(=O)NCCC[S+](C)C)cs2)cs1)C(C)O)C(O[C@@H]1O[C@@H](CO)[C@@H](O)[C@H](O)[C@@H]1O[C@H]1O[C@H](CO)[C@@H](O)[C@H](OC(N)=O)[C@@H]1O)c1cnc[nH]1` (some centres undefined), the “cell viability (log2)” value reads like this: under setting [9], inactive: 0.0914; under setting [10], inactive: 0.135; under setting [11], inactive: 0.115; under setting [12], inactive: 0.0961; under setting [13], inactive: 0.0288; under setting [14], inactive: 0.0331. Moreover, the “cell viability (log2)” value runs as follows: under setting [15], inactive: 0.152; under setting [16], inactive: 0.1; under setting [17], inactive: 0.12; under setting [18], inactive: 0.0649; under setting [19], inactive: 0.18; under setting [20], inactive: 0.0742.
As for `Nc1ncnc2c1ncn2C1OC2COP(O)(=S)OC2C1O` (centres undefined), the “cell viability (log2)” value reads like this: under setting [5], inactive: 0.0926; under setting [6], inactive: 0.132; under setting [7], inactive: 0.0861; under setting [8], inactive: 0.0676.
On to `COc1ccc(Cc2nccc3cc(OC)c(OC)cc23)cc1OC`, for which the “cell viability (log2)” value reads like this: under setting [1], inactive: 0.0975; under setting [2], inactive: 0.126; under setting [5], inactive: 0.144; under setting [6], inactive: 0.0494; under setting [3], inactive: 0.141; under setting [4], inactive: 0.216. Besides, the “cell viability (log2)” value under setting [7] was inactive: 0.00334 and the “cell viability (log2)” value under setting [8] was inactive: 0.125.
